For at least one compound, name, drawing or mass did not settle the structure. Numbered stars: 1 amine (or outer) side, 2 acyl side, 3 side chain; on linkers, the order of the positions; unused ones are H or OH. Side chains are listed from the residue outwards. Peptide text beside a SMILES is read from it. * marks the point of attachment. C18 diacid = O=C(O)CCCCCCCCCCCCCCCCC(=O)*; C16 diacid = O=C(O)CCCCCCCCCCCCCCC(=O)*; γGlu = O=C(O)[C@H](CCC(=O)[*:2])N[*:1]; AEEA = NCCOCCOCC(=O)O
Assay: Assay (II) ThT fibrillation assay for physical stability
Format: physicochemical
Conditions: pH 7.5

Row | Structure (SMILES) | ThT assay [Lagtime]
1 | CC(C)C[C@H](NC(=O)[C@H](CC(=O)O)NC(=O)[C@H](CC(C)C)NC(=O)[C@H](Cc1ccc(O)cc1)NC(=O)[C@H](CCCNC(=N)N)NC(=O)[C@H](CO)NC(=O)[C@H](Cc1ccc(O)cc1)NC(=O)[C@H](CC(=O)O)NC(=O)[C@H](CO)NC(=O)[C@@H](NC(=O)[C@H](Cc1ccccc1)NC(=O)[C@@H](NC(=O)CNC(=O)[C@H](CCC(N)=O)NC(=O)[C@H](CO)NC(=O)[C@@H](N)Cc1c[nH]cn1)[C@@H](C)O)[C@@H](C)O)C(=O)N[C@@H](CCCNC(=N)N)C(=O)N[C@@H](CCCNC(=N)N)C(=O)N[C@@H](C)C(=O)N[C@@H](CCC(N)=O)C(=O)N[C@@H](CC(=O)O)C(=O)N[C@@H](Cc1ccccc1)C(=O)N[C@H](C(=O)N[C@@H](CCCCNC(=O)CC[C@H](NC(=O)CC[C@H](NC(=O)CC[C@H](NC(=O)CCCCCCCCCCCCCCC(=O)O)C(=O)O)C(=O)O)C(=O)O)C(=O)N[C@@H](Cc1c[nH]c2ccccc12)C(=O)N[C@@H](CC(C)C)C(=O)N[C@@H](CC(C)C)C(=O)N[C@@H](CO)C(=O)N[C@H](C(=O)O)[C@@H](C)O)C(C)C [Example 91, N^ε24-[(4S)-4-carboxy-4-[[(4S)-4-carboxy-4-[[(4S)-4-carboxy-4-(15-carboxypentadecanoylamino)butanoyl]amino]butanoyl]amino]butanoyl]-[Arg12,Leu16,Lys24,Leu27,Ser28]-Glucagon] (H-HSQGTFTSDYSRYLDLRRAQDFVK([γGlu-γGlu-γGlu-C16 diacid])WLLST-OH) | 6.3 h
2 | CC[C@H](C)[C@H](NC(=O)[C@H](CC(N)=O)NC(=O)[C@H](CC(C)C)NC(=O)[C@H](CC(C)C)NC(=O)[C@H](Cc1c[nH]c2ccccc12)NC(=O)[C@H](CCCCNC(=O)CC[C@H](NC(=O)COCCOCCNC(=O)COCCOCCNC(=O)CC[C@H](NC(=O)CCCCCCCCCCCCCCCCC(=O)O)C(=O)O)C(=O)O)NC(=O)[C@@H](NC(=O)[C@H](Cc1ccccc1)NC(=O)[C@H](CC(=O)O)NC(=O)[C@H](CCC(N)=O)NC(=O)[C@H](C)NC(=O)[C@H](CCCNC(=N)N)NC(=O)[C@H](CCCNC(=N)N)NC(=O)[C@H](CO)NC(=O)[C@H](CCC(=O)O)NC(=O)[C@H](CC(C)C)NC(=O)[C@H](Cc1ccc(O)cc1)NC(=O)[C@H](CCCCN)NC(=O)[C@H](CO)NC(=O)[C@H](Cc1ccc(O)cc1)NC(=O)[C@H](CC(=O)O)NC(=O)[C@H](CO)NC(=O)[C@@H](NC(=O)[C@H](Cc1ccccc1)NC(=O)[C@@H](NC(=O)CNC(=O)[C@H](CCC(N)=O)NC(=O)[C@H](CO)NC(=O)[C@@H](N)Cc1c[nH]cn1)[C@@H](C)O)[C@@H](C)O)C(C)C)C(=O)O [Example 32, N^ε24-[(4S)-4-carboxy-4-[[2-[2-[2-[[2-[2-[2-[[(4S)-4-carboxy-4-(17-carboxyheptadecanoylamino)butanoyl]amino]ethoxy]ethoxy]acetyl]amino]ethoxy]ethoxy]acetyl]amino]butanoyl]-[Glu15,Lys24,Leu27,Ile29]-Glucagon] | 45 h
3 | CC(C)C[C@H](NC(=O)[C@H](Cc1ccc(O)cc1)NC(=O)[C@H](CCCNC(=N)N)NC(=O)[C@H](CO)NC(=O)[C@H](Cc1ccc(O)cc1)NC(=O)[C@H](CC(=O)O)NC(=O)[C@H](CO)NC(=O)[C@@H](NC(=O)[C@H](Cc1ccccc1)NC(=O)[C@@H](NC(=O)CNC(=O)[C@H](CCC(N)=O)NC(=O)[C@H](CO)NC(=O)[C@@H](N)Cc1c[nH]cn1)[C@@H](C)O)[C@@H](C)O)C(=O)N[C@@H](CC(=O)O)C(=O)N[C@@H](C)C(=O)N[C@@H](CCCNC(=N)N)C(=O)N[C@@H](CCCNC(=N)N)C(=O)N[C@@H](C)C(=O)N[C@@H](CCC(N)=O)C(=O)N[C@@H](CC(=O)O)C(=O)N[C@@H](Cc1ccccc1)C(=O)N[C@H](C(=O)N[C@@H](CCCCNC(=O)CC[C@H](NC(=O)CC[C@H](NC(=O)CC[C@H](NC(=O)CCCCCCCCCCCCCCCCC(=O)O)C(=O)O)C(=O)O)C(=O)O)C(=O)N[C@@H](Cc1c[nH]c2ccccc12)C(=O)N[C@@H](CC(C)C)C(=O)N[C@@H](CC(C)C)C(=O)N[C@@H](CO)C(=O)N[C@H](C(=O)O)[C@@H](C)O)C(C)C [Example 92, N^ε24-[(4S)-4-carboxy-4-[[(4S)-4-carboxy-4-[[(4S)-4-carboxy-4-(17-carboxyheptadecanoylamino)butanoyl]amino]butanoyl]amino]butanoyl]-[Arg12,Ala16,Lys24,Leu27,Ser28]-Glucagon] (H-HSQGTFTSDYSRYLDARRAQDFVK([γGlu-γGlu-γGlu-C18 diacid])WLLST-OH) | 13 h
4 | CC(C)C[C@H](NC(=O)[C@H](CC(=O)O)NC(=O)[C@H](CC(C)C)NC(=O)[C@H](Cc1ccc(O)cc1)NC(=O)[C@H](CCCCN)NC(=O)[C@H](CO)NC(=O)[C@@H](NC(=O)[C@H](CC(=O)O)NC(=O)[C@H](CO)NC(=O)[C@@H](NC(=O)[C@H](Cc1ccccc1)NC(=O)[C@@H](NC(=O)CNC(=O)[C@H](CCC(N)=O)NC(=O)[C@H](CO)NC(=O)[C@@H](N)Cc1c[nH]cn1)[C@@H](C)O)[C@@H](C)O)C(C)C)C(=O)N[C@@H](CCCNC(=N)N)C(=O)N[C@@H](CCCNC(=N)N)C(=O)N[C@@H](C)C(=O)N[C@@H](CCC(N)=O)C(=O)N[C@@H](CCC(=O)O)C(=O)N[C@@H](Cc1ccccc1)C(=O)N[C@H](C(=O)N[C@@H](CCCCNC(=O)CC[C@H](NC(=O)COCCOCCNC(=O)COCCOCCNC(=O)CC[C@H](NC(=O)CC[C@H](NC(=O)CCCCCCCCCCCCCCCCC(=O)O)C(=O)O)C(=O)O)C(=O)O)C(=O)N[C@@H](Cc1c[nH]c2ccccc12)C(=O)N[C@@H](CC(C)C)C(=O)N[C@@H](CC(C)C)C(=O)N[C@@H](CO)C(=O)N[C@H](C(=O)O)[C@@H](C)O)C(C)C [Example 63, N^ε24-[(4S)-4-carboxy-4-[[2-[2-[2-[[2-[2-[2-[[(4S)-4-carboxy-4-[[(4S)-4-carboxy-4-(17-carboxyheptadecanoylamino)butanoyl]amino]butanoyl]amino]ethoxy]ethoxy]acetyl]amino]ethoxy]ethoxy]acetyl]amino]butanoyl]-[Val10,Leu16,Glu21,Lys24,Leu27,Ser28]-Glucagon] (H-HSQGTFTSDVSKYLDLRRAQEFVK([γGlu-AEEA-AEEA-γGlu-γGlu-C18 diacid])WLLST-OH) | 45 h
5 | CC(C)C[C@H](NC(=O)[C@H](Cc1c[nH]c2ccccc12)NC(=O)[C@H](CCCCNC(=O)CC[C@H](NC(=O)COCCOCCNC(=O)COCCOCCNC(=O)CC[C@H](NC(=O)CC[C@H](NC(=O)CCCCCCCCCCCCCCCCC(=O)O)C(=O)O)C(=O)O)C(=O)O)NC(=O)[C@@H](NC(=O)[C@H](Cc1ccccc1)NC(=O)[C@H](CCC(=O)O)NC(=O)[C@H](CCC(N)=O)NC(=O)[C@H](C)NC(=O)[C@H](CCCNC(=N)N)NC(=O)[C@H](CCCNC(=N)N)NC(=O)[C@@H](NC(=O)[C@H](CC(=O)O)NC(=O)[C@H](CC(C)C)NC(=O)[C@H](Cc1ccc(O)cc1)NC(=O)[C@H](CCCCN)NC(=O)[C@H](CO)NC(=O)[C@@H](NC(=O)[C@H](CC(=O)O)NC(=O)[C@H](CO)NC(=O)[C@@H](NC(=O)[C@H](Cc1ccccc1)NC(=O)[C@@H](NC(=O)CNC(=O)[C@H](CCC(N)=O)NC(=O)[C@H](CO)NC(=O)[C@@H](N)Cc1c[nH]cn1)[C@@H](C)O)[C@@H](C)O)C(C)C)[C@@H](C)O)C(C)C)C(=O)N[C@@H](CC(C)C)C(=O)N[C@@H](CO)C(=O)N[C@H](C(N)=O)[C@@H](C)O [Example 61, N^ε24-[(4S)-4-carboxy-4-[[2-[2-[2-[[2-[2-[2-[[(4S)-4-carboxy-4-[[(4S)-4-carboxy-4-(17-carboxyheptadecanoylamino)butanoyl]amino]butanoyl]amino]ethoxy]ethoxy]acetyl]amino]ethoxy]ethoxy]acetyl]amino]butanoyl]-[Val10,Thr16,Glu21,Lys24,Leu27,Ser28]-Glucagon amide] (H-HSQGTFTSDVSKYLDTRRAQEFVK([γGlu-AEEA-AEEA-γGlu-γGlu-C18 diacid])WLLST-NH2) | 45 h
6 | CC(C)C[C@H](NC(=O)[C@H](Cc1ccc(O)cc1)NC(=O)[C@H](CCCCN)NC(=O)[C@H](CO)NC(=O)[C@H](Cc1ccc(O)cc1)NC(=O)[C@H](CC(=O)O)NC(=O)[C@H](CO)NC(=O)[C@@H](NC(=O)[C@H](Cc1ccccc1)NC(=O)[C@@H](NC(=O)CNC(=O)[C@H](CCC(N)=O)NC(=O)[C@H](CO)NC(=O)[C@@H](N)Cc1c[nH]cn1)[C@@H](C)O)[C@@H](C)O)C(=O)N[C@@H](CC(=O)O)C(=O)N[C@@H](C)C(=O)N[C@@H](CCCNC(=N)N)C(=O)N[C@@H](CCCNC(=N)N)C(=O)N[C@@H](C)C(=O)N[C@@H](CCC(N)=O)C(=O)N[C@@H](CC(=O)O)C(=O)N[C@@H](Cc1ccccc1)C(=O)N[C@H](C(=O)N[C@@H](CCCCNC(=O)CC[C@H](NC(=O)CC[C@H](NC(=O)COCCOCCNC(=O)COCCOCCNC(=O)CC[C@H](NC(=O)CCCCCCCCCCCCCCCCC(=O)O)C(=O)O)C(=O)O)C(=O)O)C(=O)N[C@@H](Cc1c[nH]c2ccccc12)C(=O)N[C@@H](CC(C)C)C(=O)N[C@@H](CC(C)C)C(=O)N[C@@H](CCC(N)=O)C(=O)N[C@H](C(=O)O)[C@@H](C)O)C(C)C [Example 56, N^ε24-[(4S)-4-carboxy-4-[[(4S)-4-carboxy-4-[[2-[2-[2-[[2-[2-[2-[[(4S)-4-carboxy-4-(17-carboxyheptadecanoylamino)butanoyl]amino]ethoxy]ethoxy]acetyl]amino]ethoxy]ethoxy]acetyl]amino]butanoyl]amino]butanoyl]-[Ala16,Lys24,Leu27,Gln28]-Glucagon] | 45 h
